Measurements taken from the supplement of paper PMC10681739.
± gives the standard deviation of the averaged measurements. In all, about 4,000 sequences were measured (“arbitrary fluorescence units”: median about 830, highest 2% from about 6,500 on). This part holds few or none of the hits.

Target: RUNX1 (UniProt Q01196)
Assay: RUNX1 binding intensity (PBM fluorescence), RUNX1 alone (arbitrary fluorescence units); higher = stronger binding
Settings: RUNX1 concentration 2 nM; ETS1 concentration 0 nM
Description: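 gcPBM on 36-bp genomic-derived probes (partner site mutated) containing one RUNX1 site and no ETS1 site. Recombinant human RUNX1 (2 nM) was incubated alone or with ETS1 (25 nM) and detected by anti-RUNX1 antibody fluorescence. Values are medians over 4 replicate spots (not normalised). The probes sit in constant array flanks that are not printed.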
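Note: Full-length recombinant human RUNX1 bound to double-stranded DNA microarray spots, detected with an Alexa488-labelled secondary antibody after the anti-RUNX1 primary, read as scanned spot fluorescence.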

Sequence of UniProt Q01196 (Q01196 whole entry): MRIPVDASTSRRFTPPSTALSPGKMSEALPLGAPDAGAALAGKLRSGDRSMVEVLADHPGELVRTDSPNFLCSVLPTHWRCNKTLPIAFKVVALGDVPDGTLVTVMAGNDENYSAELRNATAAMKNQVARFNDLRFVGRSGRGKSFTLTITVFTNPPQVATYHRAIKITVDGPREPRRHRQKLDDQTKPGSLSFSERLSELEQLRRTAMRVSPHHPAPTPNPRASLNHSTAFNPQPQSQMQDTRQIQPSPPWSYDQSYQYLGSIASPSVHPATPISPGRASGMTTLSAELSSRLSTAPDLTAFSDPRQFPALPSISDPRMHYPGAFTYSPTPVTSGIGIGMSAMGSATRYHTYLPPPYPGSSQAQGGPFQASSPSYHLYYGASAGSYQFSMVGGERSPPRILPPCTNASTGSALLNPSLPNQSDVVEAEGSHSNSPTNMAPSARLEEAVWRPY

Row | Sequence | RUNX1 binding intensity
1 | CCCTCCTGCGGTATTGGAGACCTGAAGCACATAGTC | 2320
2 | CAACCCGTAAGCACTAACGGAGAAACCGCAACTCGG | 4300
3 | GTTAACCACCCTCTCTATGCTTCAGATTCCTCATGT | 1600 ± 110
4 | TGGCCATGGACCGCGAAGGCTTGCTCTACTGCCGCT | 683
5 | TTTAACCTGCGGCCTCCTTGCAGTCCTCCCTTGCGC | 836
6 | TGGCAGCCAGATCCTGCCTGTGGCTAGGTCAACCCA | 665
7 | CCACCCAGAAAACCACATTTAACTCCCTCCTCTACT | 3750
8 | GGGCTCCAGTTGCGCTGTCTGCGGGTCTCGCGCGCC | 655
9 | GCTGTTTGCTGCTGATAAAAACACCCCACAACTTCA | 814
10 | ACACTGGCCTGAAGGGGCGGGACCGCGAGTTAAGAG | 651
11 | GGAGCGCGCCGGCAACGCGCGGCTGCGGCCCGGGAG | 664
12 | GAATGGCGGCTGTGGCTGGGGAGAGAAAGCCGCAGA | 880
13 | CTACGCCACAGAGCGGGGCGGGAGCTGAAGCGACTC | 766
14 | CCACTTAGTGGTCAGGCCTCTGTCTCTTCGTCCCAT | 1090
15 | TCCTCTCTCTTGCTCCCTCTGGCCACAAGCTGTGCC | 1520
16 | GCCGCCTCTTTCTGTGTTGCAAACCACAGGTCCACC | 1540
17 | CTAGGCCACCGGGAGTCTCCGCAGTGGTTTTGCAAA | 729
18 | TCCCAGTTTGTGGGAAGGGTTGAGGGAATTGAGGGG | 866
19 | CGGCCTCAACCACTCAGCGACCTGAAGGGGGAAGAA | 1140
20 | GGGAGTGGGCGGTTTCCCCAGGGACGTTTTATGGTA | 800
21 | CCAACCGCTTCACCACCCCTCAGCGACTGCCGCTTC | 1130
22 | ACTGTGCGTTGAGGTCGTCCGCCATCTGCTGCAGCT | 745
23 | TCCTGTAGTTGCCGGCTGAAGTGGTAAGGTTTTTGA | 816
24 | CGGGAATTGTGGTCTCCGCCGTACGCGAGTTGTGAG | 1030
25 | GTAGGAACCGCGATGTACAGACATGAAACCCAGGTC | 830

Row | Sequence | RUNX1 binding intensity
26 | CGGCGCTTGCGGGCGGGGCCGACCCCGAAAGTAAGG | 878
27 | GTCGTGGTGGTCGCGAGGGAGCCTGAAAGATGGTGG | 873
28 | AAAGCATTGCCTGCCTTGACTTAACCACAAGACAGG | 1280
29 | GAATGTCTGTGGTCACATACTCAGCTTCATGTTTAT | 1540
30 | TTGGTCAGCATGTGGCTGAAGAAGCCACAAGAAAAA | 816
31 | CCGCTGCGGCTGCGCGCTACGTCACTACGTTCGGCG | 768
32 | TAAAGCTGAAGGGGCCGGCTCTGCGGCCTGGCCGCT | 717
33 | GAGGGGAGGAGGTCTGAGCTTTTAATTGTGGTTTCA | 929
34 | ACGGAGCCGGGGAATCGCGCCGCGGCCCACAACGCC | 727
35 | CCGGATTGGTCCAGTTCCAGCGCCGCAGCCCGGCGG | 885
36 | GGCGCCACAACAGCACCTTTCTTTGTTTACTGTTCC | 1060
37 | ACTCCAGGATCGGGCCGCGTTGCCCACACACTTCGC | 818
38 | ATTTTAGCATTTTCGTGCTCGGAGACCACATGTTTG | 929
39 | GGCGTCACATGACCACGAACACTCTTCAGCTACGGC | 869
40 | TGCGACGCGGGTAAGCCGGGCGAAGGCCGTAAGCGG | 699
41 | GAGCCACCCACACACAGCTCACATGAAGAAGATAAG | 981
42 | GCCCACCCAGGGTGTGGTCGGATCCGATGCACCGGG | 715
43 | GCTCGCGCTTGCTGGGAGCCTTTGATGTGGGTTCTT | 720
44 | GCCGCGCGGGAGCCTCCGCCCTGTGGTTTTGGAGCC | 1140
45 | AGGACCGGCTCCGTAACGCGCTGCGGGGAGCGTTGG | 673 ± 1.6
46 | CTAACCCTGCGTCCTCTTAGTGGTTTCCCCCAACCT | 1270
47 | CCGAATCTGCGGTGGAACCCGTATGTGGCCGAGGCC | 1090
48 | GTTGGCGTAACCGCTAGGTTCTCTGGGAATTGTAGG | 1090
49 | CAGCATGTGGGTGCACACACCGATTCCTTAGAGGTT | 811
50 | CTAGGGAGAGGAGGTGAGTTTGTCTGTGGGGGTGGT | 771

Row | Sequence | RUNX1 binding intensity
51 | TAGGTTTGTGGTAGAAGCTGCAGGCACTTGCTGTCC | 876
52 | AACGCGTCCATGCTGCGCCTCCCCGCAGGCCTTGCT | 888
53 | TGCTTAGCAGGCAGTTAGTCTGCCTGTGGTAGCTCC | 664
54 | GTAGGGGAGGGACCGCAGGGAGGCGGCAGTCCTTGT | 931
55 | TCAAGTGTTTACCACTGGGTCACCAGGCAGTGGCTT | 786
56 | ACTCCCACCGCAGGCCCCACTACGGACCGGGAGTCA | 1640
57 | GACCGTTTCGGGTCCCGCCTGAGCCCGCAGCACAGG | 826
58 | CAAACCACTTAAGTGTCCTCTGTAACCGTACGGGGG | 879
59 | CTTTGTGGGCGCTCCCTGCGTCGCGGCAGTTGGGAG | 771
60 | CCGTGGGCGGTTAAAAGGCCCCGTATGTTCAGGGGG | 774
61 | TGCCCGCGGTTCGCGTCACACCCGTAAGCAGGGGCC | 844
62 | CTTACCACACGCCGCGAACGCCTTAACTCCCGGTCC | 1710
63 | TCTTCTTGCTCCCCCACCCCAAAAGCCACAGGTGAC | 1180
64 | TCCCCAGGAATACCACACACCACTTGCCCTACAACA | 1650
65 | GCATGCTCAGTTGCGGGCGGCGTCCGAAGGAGGTGG | 748
66 | CTCTTCAGCACGAAATGATGTGGTAAAACAGGGTTA | 862
67 | GGCACGAAAGAGCTGATGCATTTCAACCGCAGCCTG | 1160
68 | ATGTCTTTAACCACACTGAGCTCCCGGGCCCTGCAC | 1410
69 | CAAGAGCCGAAAGTCCCTTGTGCCGCAGTCCTTCCC | 847
70 | AAACAAGCGGTAACGCGACCACTGCCGCCACAGCCT | 800
71 | GGGCTTATCTAGCCACAGCAGAACATGCTGCTCTGG | 756
72 | TCACAATCGCCCACAAAGACAGCAAGTAACTGTCAG | 892
73 | TGGTGGGTGCCCACAGAGCACTGCCGCATTCCTGAG | 797
74 | TGACATTCCCGGCCCCACCTCGGCCCGCAGCGCCGC | 906
75 | TGTGATAAGGATCTTCGTGTGCCTTGTGGTCAGGTG | 846

Row | Sequence | RUNX1 binding intensity
76 | GTTGCGGGCCGAAGAAGCTCATGAGGGAGACGCAGG | 831
77 | TGAGGGACTTGCGGGCTCGGTCCTTGCTGAGAGGTG | 773
78 | AGAAAAGGAGATGGTGGGCTGCACACCACAGCTCAC | 730
79 | TTCAGTGGGTGGTTACTCGGCATGCTGTTGGGCTTC | 795
80 | CTGCGATTTGCTGGCCTACCGTCTGGTGTGGTACCT | 810
81 | ACCAAAACACACCCTGGGGCCCCACACAATTAGTGA | 812
82 | CCGTGGTTTGTTTTACATACCCCAGCATGCTGTATG | 829
83 | TAAATAGGAGGTCAGAGTTTACTGCCGAACCCACAG | 732
84 | GCAGCGCGGGTTCAGCTCCAACCTTGCTGGAGACCC | 840
85 | TGTTAATGCGGGATCTTGCTGTCCGTTCCCGAGATG | 870
86 | CATTTGATGTGGTTGATTACTGCCTGCTTTAATTTT | 1080
87 | CAGTCTGGCCATGTGGTGCCACTTCTTCTCTGGTTT | 785
88 | CCAAAAAGGATGGAAACCAGAAAGCCACAGAATGGT | 940
89 | TTCTCATCTGGCCGGCTTGCTTTCCCCTGCGGTCGT | 1090
90 | GTCGGAGATGGTGGTCACGAGCGCTTACGGGTCAGC | 704
91 | ATTCGTTGCGGCAGCGCAGCAGCCACCGTACAAGCT | 775
92 | TGCTCACCTCCTCTGCAGCTTTGTGGGTGCCATCAC | 826
93 | GATATGCAGAAAACCAACCTACAGGCAGGTGAGTCA | 765
94 | AAAGCTCCGCGCGGTTCCCACCCCTGAACTGCCTCT | 902
95 | CTCAGTGTGGTTAAAGACATGCAAGGCAGCATAGAA | 1180
96 | CTCCCGACCACCGCCGCAGCGCGGAGGGGCGTCCCC | 1020
97 | CCACCCTCCGTACGGCCGCGACCGCGAGGAGGAAGA | 851
98 | GCGCTACCGGTTGCCGAGACGCGACCACACAACCAA | 791
99 | TGTTTACTGCCTGGAGGCACTTTGGTTTTTCTTTCT | 1070
100 | CGAAGAGGCTGGGTGGTAAACAGGAGGTGGGCGCTC | 776

Row | Sequence | RUNX1 binding intensity
101 | AGGAGCCGGGAGTCCCGCCCACGCACCCCCCGCAGG | 813
102 | TGTGTCAACACCGCGGGCAGCTTACGGTGCGACTGT | 698
103 | CCGGTCGCCGCGGTCCTCTGCGCGGGATCTGGCTCT | 879
104 | ACTAGATTAACCACATCCACTTACGGTGGGGCTGGA | 1400
105 | CCTCTTGGTTTACTGTCCCTCACCACAAGAAGCAGT | 1260
106 | AGGGTGTTCTAACCACGAGCTCAGGCTGCTGTCTGT | 918
107 | CTGCGGCCTGACGCCCTACGCCTACAATTCCCAGAG | 840
108 | CCCCGCGGTCGTCGCGCGAACTCCTGCCGCGCGTCG | 749
109 | GCCCCGCCCACAGAGGAGGGTACCCCGCCGTAAGCC | 886
110 | CCCAGAGCTGCCGATTGGCTCTTCTGTGGTGGCGGG | 741
111 | AAGTGACCGCGCGGTGCGCCGGCCCGCGAGGAGACG | 814
112 | ACGTCAGCCTCCCCCGGGCTCGCGGTAAGGTGTGAG | 788
113 | AAAACCCGGGAACCGCCGCGAACCTGAACCGCCTTC | 886
114 | TGTTGGTGGTTAAAAAGCAATTTGGGACTGCCTCTT | 894
115 | CGGCGCTCCCACCGCGAGCCGACGGGAACTGGAGTC | 911
116 | TGGGTCGCGGTGGCTGTGAGGGCCGAAGAAAAGGCC | 820
117 | ACATGTCCTTTTGGTATTTAAAGTAACCACACAGAA | 867
118 | CTGCCAACCTGTGGGCGCCTGGCTTGCTGCCTGGGC | 642
119 | GAGCGCAGGACGGGAGCTCGGTGCGGGTGCGGCCTC | 748
120 | TTCTTCAATTCCTTCTCTCCGTGGTTTCGCCATTAG | 1660
121 | GAGTGGGCGGAGATCCGTGCCTGGCAGACCACAAAG | 813
122 | CCATTCCTGCGGCCTTCATTGCTGCATCAGGTGGAG | 895
123 | GAACCCGGCGGTCACGGGAATAGCCGTCGCGCCGAG | 720
124 | TGGGGAGGCAGCAAACGGGCCTTGTGGTTGGGGGGT | 840
125 | ACACAGTGTTTGTGGTGAATGGCTTCAGGCCCCATA | 1080
